According to PMC12746902, “Pathogenic Gαo Mutants Drive Dominant GPCR Coupling in GNAO1 Encephalopathies” (The FASEB Journal, 2025):

Target: T1, M2 muscarinic acetylcholine receptor with C-terminal split-YFP fragment YN (M2R-YN) (UniProt P08172 1-466)
T1 sequence (looked up): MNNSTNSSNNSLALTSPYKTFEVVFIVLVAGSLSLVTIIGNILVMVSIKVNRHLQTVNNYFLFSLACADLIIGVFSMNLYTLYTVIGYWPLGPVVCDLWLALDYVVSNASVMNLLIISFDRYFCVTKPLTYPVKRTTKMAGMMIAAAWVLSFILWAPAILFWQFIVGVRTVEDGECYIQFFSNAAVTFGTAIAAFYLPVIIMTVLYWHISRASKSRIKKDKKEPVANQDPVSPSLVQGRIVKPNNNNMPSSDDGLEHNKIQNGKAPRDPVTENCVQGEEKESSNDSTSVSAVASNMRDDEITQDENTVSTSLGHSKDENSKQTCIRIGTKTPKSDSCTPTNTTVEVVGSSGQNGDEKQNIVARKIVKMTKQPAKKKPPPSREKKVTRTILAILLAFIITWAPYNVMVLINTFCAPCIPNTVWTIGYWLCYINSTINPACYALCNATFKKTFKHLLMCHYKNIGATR
Assay: cell-based or functional assay

B1: Gαo C215Y with internal split-YFP fragment YC at Gly92 (natural protein)
chain: not shown
reduction of ACh-mediated phosphorylation (pT307/pS309 relative to total receptor) of immunoprecipitated GFP-M2R with co-expressed UNTAGGED Gαo C215Y, 100 μM ACh for 5 min: 20%
